From the supplement of paper PMC4166925
± gives the standard deviation of the averaged measurements. The full ranking holds about 33,000 sequences; the median of “E-score (dimensionless, -0.5 to 0.5)” is about -0.049, and the highest 2% start at about 0.37. The list shows a part of the results.

system: T1, PmTbr T-box DNA-binding domain (GST fusion); assay: PBM E-score of 8-mer (E-score (dimensionless, -0.5 to 0.5)); Tbr is Tbrain of the sea star Patiria miniata (Pm) or the sea urchin Strongylocentrotus purpuratus (Sp); higher = stronger binding preference; most listed sequences are background and not binding sites; conditions: the construct has about 5 more residues each side
T1 sequence: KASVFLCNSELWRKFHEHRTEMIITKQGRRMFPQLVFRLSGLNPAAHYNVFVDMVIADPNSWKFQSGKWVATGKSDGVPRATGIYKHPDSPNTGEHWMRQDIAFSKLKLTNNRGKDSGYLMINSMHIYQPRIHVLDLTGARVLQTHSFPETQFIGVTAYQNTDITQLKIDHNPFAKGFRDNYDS
Procedure, shortened: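 Using the Universal PBM Analysis Suite, every ungapped 8-mer received an enrichment E-score averaged over duplicate arrays. Probe intensities came from double-stranded Universal Agilent oligonucleotide arrays incubated with 200 nM GST-fused Tbr T-box DNA-binding domain in PBS (pH 7.5). That protein was expressed in BL21 E. coli at 20 °C and purified by glutathione affinity chromatography.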

Row | Sequence | PBM E-score of 8-mer
1 | CGGCAAGC | -0.107 ± 0.01
2 | ATTCATAA | -0.207 ± 0.036
3 | CCGCACAG | -0.00829 ± 0.13
4 | CTCGTGCC | -0.0213 ± 0.0088
5 | AGGCAATG | -0.128 ± 0.041
6 | CCCTGGCG | 0.0422 ± 0.0021
7 | CCATGACA | 0.04 ± 0.02
8 | CTGCTGGA | -0.212 ± 0.047
9 | CAGTATCG | 0.072 ± 0.041
10 | ACAAGCCA | 0.152 ± 0.057
11 | ACCTATTA | -0.00639 ± 0.025
12 | ATAAACTC | -0.0745 ± 0.061
13 | GAAGTCCC | -0.155 ± 0.028
14 | GACGGGAA | 0.0737 ± 0.042
15 | AGATTTCG | 0.0377 ± 0.012
16 | CATTTCTA | 0.112 ± 0.031
17 | AGAGTTGA | 0.0684 ± 0.016
18 | GAACCCAC | -0.277 ± 0.022
19 | TGTACCAA | -0.0377 ± 0.049
20 | ACCGGCCG | -0.17 ± 0.0053
21 | ATGATACG | -0.101 ± 0.044
22 | CTCTGGCC | -0.232 ± 0.07
23 | GTGACCAA | 0.0977 ± 0.11
24 | ATTGGCTA | -0.147 ± 0.05
25 | GTAACGTA | -0.266 ± 0.0049

Row | Sequence | PBM E-score of 8-mer
26 | CTTTATCC | -0.291 ± 0.027
27 | CTCGGCAA | -0.0618 ± 0.075
28 | CAAGCAAC | -0.0613 ± 0.033
29 | ACCGAAGA | -0.0421 ± 0.0039
30 | AATTCTAG | -0.0518 ± 0.044
31 | AATCAATT | 0.0618 ± 0.039
32 | AGGATACC | -0.198 ± 0.1
33 | AGGCACTA | -0.127 ± 0.068
34 | ATACGTCC | -0.2731 ± 0.0014
35 | AGCTAGCG | 0.12 ± 0.01
36 | AGTTTAGA | -0.0804 ± 0.033
37 | CCTATAAG | 0.167 ± 0.0054
38 | AGGTGGAA | 0.0714 ± 0.0024
39 | ACAAGTCG | 0.198 ± 0.003
40 | ACAGATCC | -0.169 ± 0.077
41 | AAACACGT | 0.289 ± 0.021
42 | AGCGACCG | -0.0525 ± 0.12
43 | AACGGCGG | 0.0126 ± 0.024
44 | CAACAGGG | -0.199 ± 0.016
45 | CTTGTTCA | -0.0656 ± 0.023
46 | CCGTACGG | -0.233 ± 0.071
47 | ACAGTGGG | -0.0158 ± 0.16
48 | AAAGTATA | -0.0239 ± 0.088
49 | ATAACGAA | 0.0208 ± 0.016
50 | CAAGGTTA | -0.0523 ± 0.0068

Row | Sequence | PBM E-score of 8-mer
51 | ACCTCCGC | 0.148 ± 0.023
52 | CAGACCAA | -0.1214 ± 0.001
53 | CAAGCACA | 0.0154 ± 0.062
54 | AATAATTG | -0.0383 ± 0.073
55 | GTCGTGAA | 0.265 ± 0.018
56 | TGCCAGCA | 0.0676 ± 0.051
57 | GCGGTACC | 0.00592 ± 0.045
58 | GAATTAGC | 0.198 ± 0.036
59 | GAGATCAC | 0.201 ± 0.018
60 | AAAGTAAT | -0.294 ± 0.11
61 | AGAAGTAC | -0.211 ± 0.048
62 | AACACACA | 0.259 ± 0.021
63 | TGCGCAAA | 0.0872 ± 0.1
64 | TCACAGCA | 0.224 ± 0.016
65 | CCGATAGA | -0.318 ± 0.0043
66 | CAACAACG | 0.111 ± 0.013
67 | CCTTTAGA | -0.278 ± 0.016
68 | CAGTAAAA | -0.261 ± 0.025
69 | ACGGTATC | -0.101 ± 0.036
70 | ATCGTGAA | 0.155 ± 0.034
71 | CCAGAAAA | -0.0136 ± 0.013
72 | CTAATGAC | 0.0896 ± 0.021
73 | CCGTGGTA | -0.0871 ± 0.014
74 | AACGGCCC | -0.201 ± 0.023
75 | CATCATAA | -0.0413 ± 0.036

Row | Sequence | PBM E-score of 8-mer
76 | GCAATAGC | 0.0642 ± 0.02
77 | CGCAATGA | -0.174 ± 0.076
78 | ATCAGTAA | -0.178 ± 0.0057
79 | CTTCTTCA | -0.0193 ± 0.045
80 | GGTCGACC | -0.253 ± 0.033
81 | CATGCCCG | -0.0654 ± 0.012
82 | GCAAAATA | -0.146 ± 0.013
83 | TAAGAATA | -0.069 ± 0.035
84 | ATGCGTCG | 0.0529 ± 0.026
85 | ACAGAGTG | 0.0124 ± 0.051
86 | AGAATAAA | -0.131 ± 0.073
87 | AATGATAT | -0.143 ± 0.097
88 | GTGCCTAA | 0.0531 ± 0.03
89 | GACGGCTA | -0.201 ± 0.095
90 | AGGGACAT | -0.249 ± 0.004
91 | GGGCTGAA | -0.15 ± 0.036
92 | ATCGATTC | 0.064 ± 0.021
93 | CGTTGCCA | 0.264 ± 0.012
94 | CACACACG | 0.181 ± 0.059
95 | AGAGATAA | -0.0215 ± 0.049
96 | CGTGGACC | -0.226 ± 0.088
97 | AGTTTTTC | -0.16 ± 0.03
98 | AACGCAGA | -0.13 ± 0.04
99 | ATCGGCTG | -0.0239 ± 0.079
100 | GTGTCCCA | 0.0602 ± 0.027

Row | Sequence | PBM E-score of 8-mer
101 | GGAGGCAA | -0.288 ± 0.045
102 | CAGCGAAC | -0.0234 ± 0.07
103 | AGGTCGAG | -0.0267 ± 0.008
104 | GCGCAATA | 0.0523 ± 0.034
105 | ATCAGGGG | -0.118 ± 0.0015
106 | GGCACATA | 0.1543 ± 0.001
107 | AGAAGGGC | -0.11 ± 0.013
108 | GTAATATA | -0.0166 ± 0.059
109 | CGGGCACG | -0.212 ± 0.055
110 | AACCTTCT | -0.0898 ± 0.0041
111 | ACGTCGCA | 0.142 ± 0.067
112 | ACTGGGCA | -0.17 ± 0.057
113 | GTATGCTA | 0.00266 ± 0.025
114 | CCGCTAGG | -0.0399 ± 0.016
115 | CACCACAA | 0.161 ± 0.081
116 | AATTTCAA | -0.239 ± 0.02
117 | ACAAACCT | -0.1869 ± 0.0004
118 | GTAAGAAC | -0.0344 ± 0.05
119 | CTCGTAAC | -0.0177 ± 0.081
120 | ATATAAGG | -0.0787 ± 0.001
121 | TATCACGA | 0.104 ± 0.063
122 | CCATCAGG | 0.0307 ± 0.054
123 | CGGACACC | 0.296 ± 0.014
124 | TAGTCTGA | -0.0796 ± 0.0091
125 | AGCGGAGC | -0.183 ± 0.024

Row | Sequence | PBM E-score of 8-mer
126 | GTCCGACA | 0.104 ± 0.032
127 | GGGCGTTA | 0.276 ± 0.0092
128 | GGCAAATA | -0.0591 ± 0.074
129 | CATCGGGA | -0.177 ± 0.044
130 | ATGATTTA | -0.0212 ± 0.027
131 | ACACCGAC | 0.252 ± 0.03
132 | GTCCCATA | -0.268 ± 0.029
133 | CAGGAGGG | -0.11 ± 0.027
134 | CCGCCGCA | -0.139 ± 0.016
135 | CGTCCACA | 0.00836 ± 0.014
136 | CTCTCATC | -0.114 ± 0.086
137 | CCCGGATA | -0.113 ± 0.049
138 | CGGATCAA | 0.167 ± 0.029
139 | AAGATGTA | -0.167 ± 0.1
140 | CATAATTA | -0.341 ± 0.13
141 | CTCCGAGC | -0.186 ± 0.0065
142 | ACGGGTTC | 0.0788 ± 0.024
143 | ACCCTAAT | 0.0314 ± 0.045
144 | GGCTCTAC | 0.069 ± 0.037
145 | TAAGACAA | -0.0589 ± 0.0022
146 | GCAACCAA | -0.217 ± 0.038
147 | CTTCCCAC | 0.184 ± 0.0075
148 | ATCGACGG | -0.00285 ± 0.066
149 | GACCCTCC | -0.121 ± 0.03
150 | TCAACGCA | 0.0714 ± 0.017

Row | Sequence | PBM E-score of 8-mer
151 | GGAACACC | 0.253 ± 0.049
152 | AGAACTAA | -0.178 ± 0.015
153 | GACGGTGA | -0.00151 ± 0.0082
154 | CCATTCGA | -0.094 ± 0.029
155 | CGTAGAGC | -0.3257 ± 0.0021
156 | GACGTGGA | -0.183 ± 0.11
157 | AAGTAGCC | -0.166 ± 0.04
158 | AGAGAGAC | -0.191 ± 0.03
159 | GCGAATTA | 0.195 ± 0.014
160 | ACAATTGG | 0.144 ± 0.054
161 | GAGCTTGC | -0.113 ± 0.019
162 | AACATTTC | -0.0908 ± 0.045
163 | CCGACTCC | -0.193 ± 0.022
164 | GGTAATCA | -0.0165 ± 0.049
165 | TAAAAGGA | 0.113 ± 0.068
166 | CTTGCGTC | 0.00404 ± 0.013
167 | AGTTTACA | 0.14 ± 0.049
168 | AAATCCAT | -0.126 ± 0.025
169 | AGCTACAG | -0.0735 ± 0.056
170 | ATGTGAAT | 0.131 ± 0.039
171 | CCAAGCGC | 0.0354 ± 0.02
172 | AAAGAAGC | -0.218 ± 0.034
